Assay results taken from the supplement of paper PMC8728848.
The list shows a part of the results.

What was measured:
Assay in all cases: glycan array binding signal (z-score within array); higher = stronger binding
Conditions in all cases: glycan notation: IUPAC condensed, linker removed
[1] = biological target: Fuc(a1-2)Gal6S(b1-3)GlcNAc
Summary of the method: (§1)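 The binding signal is a Z-score computed within each array and averaged over linkers. Arrays of the same protein sequence at different concentrations or buffers were also averaged together. Data originate from 3228 arrays in the Consortium for Functional Glycomics database, kept only where the protein sequence was available.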

[2] = biological target: Fuc(a1-2)Gal6S(b1-3)GlcNAc6S
Summary of the method: as §1

Fuc(a1-2)Gal6S(b1-4)Glc = biological target: Fuc(a1-2)Gal6S(b1-4)Glc
Summary of the method: as §1

[3] = biological target: Fuc(a1-2)Gal6S(b1-4)Glc6S
Summary of the method: as §1

Fuc(a1-2)[Gal(a1-3)]Gal = biological target: Fuc(a1-2)[Gal(a1-3)]Gal
Summary of the method: as §1

[4] = biological target: Fuc(a1-2)[Gal(a1-3)]Gal(b1-3)GalNAc
Summary of the method: as §1

[5] = biological target: Fuc(a1-2)[Gal(a1-3)]Gal(b1-3)GalNAc(b1-3)Gal(a1-4)Gal(b1-4)Glc
Summary of the method: as §1

[6] = biological target: Fuc(a1-2)[Gal(a1-3)]Gal(b1-3)GlcNAc
Summary of the method: as §1

[7] = biological target: Fuc(a1-2)[Gal(a1-3)]Gal(b1-3)GlcNAc(b1-2)Man(a1-3)[Fuc(a1-2)[Gal(a1-3)]Gal(b1-3)GlcNAc(b1-2)Man(a1-6)]Man(b1-4)GlcNAc(b1-4)GlcNAc
Summary of the method: as §1

[8] = biological target: Fuc(a1-2)[Gal(a1-3)]Gal(b1-3)GlcNAc(b1-2)Man(a1-3)[Fuc(a1-2)[Gal(a1-3)]Gal(b1-3)GlcNAc(b1-2)Man(a1-6)]Man(b1-4)GlcNAc(b1-4)[Fuc(a1-6)]GlcNAc
Summary of the method: as §1

[9] = biological target: Fuc(a1-2)[Gal(a1-3)]Gal(b1-3)GlcNAc(b1-3)GalNAc
Summary of the method: as §1

[10] = biological target: Fuc(a1-2)[Gal(a1-3)]Gal(b1-3)GlcNAc(b1-6)GalNAc
Summary of the method: as §1

[11] = biological target: Fuc(a1-2)[Gal(a1-3)]Gal(b1-4)Glc
Summary of the method: as §1

[12] = biological target: Fuc(a1-2)[Gal(a1-3)]Gal(b1-4)GlcNAc
Summary of the method: as §1

[13] = biological target: Fuc(a1-2)[Gal(a1-3)]Gal(b1-4)GlcNAc(b1-2)Man
Summary of the method: as §1

[14] = biological target: Fuc(a1-2)[Gal(a1-3)]Gal(b1-4)GlcNAc(b1-2)Man(a1-3)[Fuc(a1-2)[Gal(a1-3)]Gal(b1-4)GlcNAc(b1-2)Man(a1-6)]Man(b1-4)GlcNAc(b1-4)GlcNAc
Summary of the method: as §1

[15] = biological target: Fuc(a1-2)[Gal(a1-3)]Gal(b1-4)GlcNAc(b1-2)Man(a1-3)[Fuc(a1-2)[Gal(a1-3)]Gal(b1-4)GlcNAc(b1-2)Man(a1-6)]Man(b1-4)GlcNAc(b1-4)[Fuc(a1-6)]GlcNAc
Summary of the method: as §1

[16] = biological target: Fuc(a1-2)[Gal(a1-3)]Gal(b1-4)GlcNAc(b1-3)GalNAc
Summary of the method: as §1

[17] = biological target: Fuc(a1-2)[Gal(a1-3)]Gal(b1-4)GlcNAc(b1-3)[Fuc(a1-2)[Gal(a1-3)]Gal(b1-4)GlcNAc(b1-6)]GalNAc
Summary of the method: as §1

[18] = biological target: Fuc(a1-2)[Gal(a1-3)]Gal(b1-4)GlcNAc(b1-6)GalNAc
Summary of the method: as §1

[19] = biological target: Fuc(a1-2)[Gal(a1-3)]Gal(b1-4)[Fuc(a1-3)]Glc
Summary of the method: as §1

[20] = biological target: Fuc(a1-2)[Gal(a1-3)]Gal(b1-4)[Fuc(a1-3)]GlcNAc
Summary of the method: as §1

[21] = biological target: Fuc(a1-2)[Gal(a1-3)]Gal(b1-4)[Fuc(a1-3)]GlcNAc(b1-3)GalNAc
Summary of the method: as §1

[22] = biological target: Fuc(a1-2)[Gal(a1-4)]Gal(b1-4)GlcNAc
Summary of the method: as §1

[23] = biological target: Fuc(a1-2)[GalNAc(a1-3)]Gal
Summary of the method: as §1

[24] = biological target: Fuc(a1-2)[GalNAc(a1-3)]Gal(b1-3)GalNAc(a1-3)[Fuc(a1-2)]Gal(b1-4)GlcNAc
Summary of the method: as §1

[25] = biological target: Fuc(a1-2)[GalNAc(a1-3)]Gal(b1-3)GalNAc(b1-3)Gal(a1-4)Gal(b1-4)Glc
Summary of the method: as §1

[26] = biological target: Fuc(a1-2)[GalNAc(a1-3)]Gal(b1-3)GlcNAc
Summary of the method: as §1

[27] = biological target: Fuc(a1-2)[GalNAc(a1-3)]Gal(b1-3)GlcNAc(b1-2)Man(a1-3)[Fuc(a1-2)[GalNAc(a1-3)]Gal(b1-3)GlcNAc(b1-2)Man(a1-6)]Man(b1-4)GlcNAc(b1-4)GlcNAc
Summary of the method: as §1

[28] = biological target: Fuc(a1-2)[GalNAc(a1-3)]Gal(b1-3)GlcNAc(b1-2)Man(a1-3)[Fuc(a1-2)[GalNAc(a1-3)]Gal(b1-3)GlcNAc(b1-2)Man(a1-6)]Man(b1-4)GlcNAc(b1-4)[Fuc(a1-6)]GlcNAc
Summary of the method: as §1

[29] = biological target: Fuc(a1-2)[GalNAc(a1-3)]Gal(b1-3)GlcNAc(b1-3)GalNAc
Summary of the method: as §1

[30] = biological target: Fuc(a1-2)[GalNAc(a1-3)]Gal(b1-3)GlcNAc(b1-6)GalNAc
Summary of the method: as §1

[31] = biological target: Fuc(a1-2)[GalNAc(a1-3)]Gal(b1-4)Glc
Summary of the method: as §1

[32] = biological target: Fuc(a1-2)[GalNAc(a1-3)]Gal(b1-4)GlcNAc
Summary of the method: as §1

[33] = biological target: Fuc(a1-2)[GalNAc(a1-3)]Gal(b1-4)GlcNAc(b1-2)Man
Summary of the method: as §1

[34] = biological target: Fuc(a1-2)[GalNAc(a1-3)]Gal(b1-4)GlcNAc(b1-2)Man(a1-3)[Fuc(a1-2)[GalNAc(a1-3)]Gal(b1-4)GlcNAc(b1-2)Man(a1-6)]Man(b1-4)GlcNAc(b1-4)GlcNAc
Summary of the method: as §1

[35] = biological target: Fuc(a1-2)[GalNAc(a1-3)]Gal(b1-4)GlcNAc(b1-2)Man(a1-3)[Fuc(a1-2)[GalNAc(a1-3)]Gal(b1-4)GlcNAc(b1-2)Man(a1-6)]Man(b1-4)GlcNAc(b1-4)[Fuc(a1-6)]GlcNAc
Summary of the method: as §1

[36] = biological target: Fuc(a1-2)[GalNAc(a1-3)]Gal(b1-4)GlcNAc(b1-3)Gal(b1-4)GlcNAc
Summary of the method: as §1

[37] = biological target: Fuc(a1-2)[GalNAc(a1-3)]Gal(b1-4)GlcNAc(b1-3)Gal(b1-4)GlcNAc(b1-3)Gal(b1-4)GlcNAc
Summary of the method: as §1

[38] = biological target: Fuc(a1-2)[GalNAc(a1-3)]Gal(b1-4)GlcNAc(b1-3)GalNAc
Summary of the method: as §1

[39] = biological target: Fuc(a1-2)[GalNAc(a1-3)]Gal(b1-4)GlcNAc(b1-3)[Fuc(a1-2)[GalNAc(a1-3)]Gal(b1-4)GlcNAc(b1-6)]GalNAc
Summary of the method: as §1

[40] = biological target: Fuc(a1-2)[GalNAc(a1-3)]Gal(b1-4)GlcNAc(b1-6)GalNAc
Summary of the method: as §1

[41] = biological target: Fuc(a1-2)[GalNAc(a1-3)]Gal(b1-4)[Fuc(a1-3)]GlcNAc
Summary of the method: as §1

[42] = biological target: Fuc(a1-2)[GalNAc(a1-3)]Gal(b1-4)[Fuc(a1-3)]GlcNAc(b1-3)GalNAc
Summary of the method: as §1

[43] = biological target: Fuc(a1-2)[GalNAc(a1-4)]Gal(b1-4)GlcNAc
Summary of the method: as §1

B1: CvGal2 (Crassostrea virginica) (protein)
chain: MGSSHHHHHHSSGLVPRGSHMRIREAGKRKDTTKVYQIPDGLFPGQQVMLRGRVPWGSKSFSINFSATPRMGEGDILFHLNPRPSEGVCIRNALLNGSWGAEEKWQPYFPFDDGRSFSVKIEVTNDAFRTFVNGRPFVDFLHRTDFRAGKYLTLREGAEYYDVIFQSKPNIPLTTAIHNGMRIGKTIRIRGMCTAQDGFAINFNDNRNNIYFHFNARPAQRTVVRNSYFGSWGNEETAISKEFPFYPFLYFYASFVCMEDKFAVYVNDEHFIDFAHRGNPNNISVLQIKGSVNVLDTECLEPMGEDAMTEVDSGLENGDLFVLNGLMTERGKTFAVNFLNGFTENDDIALHFNPRKSTGEVVLNSRYGGAWQSEEKVALPGVFWSNRPLQVKVETKRNKFKIYVNGVDLAKYKIRGNVEDVHAVQVKGDVFLLETLLLKRLMKPVWERLTGGIRPGTWVTLQGTPKKNWQQFVVNFALDDTLDGDIAFHFNVRRGARQVVRNHRQSGAWGREETVTPFFAFDSEATFEIVFFVKEEKFLIYFNGKLFFEFVHRVPVERITHIYMDGDCNFYEPEVVI
glycan array binding signal (z-score) [1]: -0.331 | glycan array binding signal (z-score) [2]: -0.22 | glycan array binding signal (z-score) (Fuc(a1-2)Gal6S(b1-4)Glc): -0.327 | glycan array binding signal (z-score) [3]: -0.338 | glycan array binding signal (z-score) (Fuc(a1-2)[Gal(a1-3)]Gal): -0.318 | glycan array binding signal (z-score) [4]: 0.513 | glycan array binding signal (z-score) [5]: 0.133 | glycan array binding signal (z-score) [6]: 2.36 | glycan array binding signal (z-score) [7]: 5.23 | glycan array binding signal (z-score) [8]: 1.59 | glycan array binding signal (z-score) [9]: 2.86 | glycan array binding signal (z-score) [10]: 3.09 | glycan array binding signal (z-score) [11]: 4.03 | glycan array binding signal (z-score) [12]: 2.16 | glycan array binding signal (z-score) [13]: 0.432 | glycan array binding signal (z-score) [14]: 7.14 | glycan array binding signal (z-score) [15]: 3.4 | glycan array binding signal (z-score) [16]: 0.056 | glycan array binding signal (z-score) [17]: 1.54 | glycan array binding signal (z-score) [18]: -0.339 | glycan array binding signal (z-score) [19]: -0.332 | glycan array binding signal (z-score) [20]: -0.335 | glycan array binding signal (z-score) [21]: -0.328 | glycan array binding signal (z-score) [22]: -0.327 | glycan array binding signal (z-score) [23]: -0.04 | glycan array binding signal (z-score) [24]: 1.57 | glycan array binding signal (z-score) [25]: 2.72 | glycan array binding signal (z-score) [26]: 2.53 | glycan array binding signal (z-score) [27]: 4.12 | glycan array binding signal (z-score) [28]: -0.16 | glycan array binding signal (z-score) [29]: 0.97 | glycan array binding signal (z-score) [30]: 0.17 | glycan array binding signal (z-score) [31]: -0.075 | glycan array binding signal (z-score) [32]: 0.484 | glycan array binding signal (z-score) [33]: 2.71 | glycan array binding signal (z-score) [34]: 2.63 | glycan array binding signal (z-score) [35]: 3.72 | glycan array binding signal (z-score) [36]: 3.77 | glycan array binding signal (z-score) [37]: 4.33 | glycan array binding signal (z-score) [38]: 0.693 | glycan array binding signal (z-score) [39]: 6.77 | glycan array binding signal (z-score) [40]: 1.45 | glycan array binding signal (z-score) [41]: -0.329 | glycan array binding signal (z-score) [42]: -0.333 | glycan array binding signal (z-score) [43]: -0.327
